Laboratory results reported in paper PMC10320511.
Results are given in words; binding and its absence hold for the method and conditions named. In cells and extracts the contact can be indirect. Some binding calls cover weakened binding; strength is not graded here. Tags and fused reporters may be left off the sequences shown.

Experiments:
[1] = biological target: T1, FRQ Δ200–249, V5H6-tagged (Neurospora crassa) (UniProt P19970); assay: co-IP; V5H6-tagged FRQ (wild type or mutant) pulled down with V5 agarose from Neurospora lysate (cultures in the light, 25 °C); 50 mM Hepes pH 7.4, 137 mM NaCl, 10% glycerol, 0.4% NP-40; 4 °C, 2 h; Western blot with FRQ, FRH, WC-1 and WC-2 antibodies
T1 sequence: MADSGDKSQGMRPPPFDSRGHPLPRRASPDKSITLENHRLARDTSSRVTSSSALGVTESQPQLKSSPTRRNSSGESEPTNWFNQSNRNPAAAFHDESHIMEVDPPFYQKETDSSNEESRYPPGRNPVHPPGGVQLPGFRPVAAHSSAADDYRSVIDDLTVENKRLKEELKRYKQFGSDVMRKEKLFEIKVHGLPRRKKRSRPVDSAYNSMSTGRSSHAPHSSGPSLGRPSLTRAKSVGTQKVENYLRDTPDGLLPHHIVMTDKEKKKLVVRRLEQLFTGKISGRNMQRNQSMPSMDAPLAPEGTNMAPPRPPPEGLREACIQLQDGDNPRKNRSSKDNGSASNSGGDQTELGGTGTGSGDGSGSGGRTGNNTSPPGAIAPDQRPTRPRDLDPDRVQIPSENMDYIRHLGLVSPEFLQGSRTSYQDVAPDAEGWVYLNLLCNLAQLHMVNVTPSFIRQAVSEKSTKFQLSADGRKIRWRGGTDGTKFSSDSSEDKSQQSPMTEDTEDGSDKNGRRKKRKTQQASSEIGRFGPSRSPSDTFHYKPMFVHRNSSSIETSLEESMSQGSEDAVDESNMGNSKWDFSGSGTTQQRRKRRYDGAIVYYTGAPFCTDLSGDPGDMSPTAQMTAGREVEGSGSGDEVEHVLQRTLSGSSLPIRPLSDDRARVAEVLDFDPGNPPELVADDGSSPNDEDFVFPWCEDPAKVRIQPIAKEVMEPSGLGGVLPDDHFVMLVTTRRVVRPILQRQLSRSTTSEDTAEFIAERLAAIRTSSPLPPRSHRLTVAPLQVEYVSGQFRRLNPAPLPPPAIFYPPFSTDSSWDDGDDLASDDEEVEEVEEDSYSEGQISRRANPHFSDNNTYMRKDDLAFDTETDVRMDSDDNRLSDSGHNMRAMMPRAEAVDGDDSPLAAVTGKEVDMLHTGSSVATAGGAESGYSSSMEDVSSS

[2] = biological target: T2, FRQ Δ874–884, V5H6-tagged (Neurospora crassa) (UniProt P19970); assay: as above
T2 sequence: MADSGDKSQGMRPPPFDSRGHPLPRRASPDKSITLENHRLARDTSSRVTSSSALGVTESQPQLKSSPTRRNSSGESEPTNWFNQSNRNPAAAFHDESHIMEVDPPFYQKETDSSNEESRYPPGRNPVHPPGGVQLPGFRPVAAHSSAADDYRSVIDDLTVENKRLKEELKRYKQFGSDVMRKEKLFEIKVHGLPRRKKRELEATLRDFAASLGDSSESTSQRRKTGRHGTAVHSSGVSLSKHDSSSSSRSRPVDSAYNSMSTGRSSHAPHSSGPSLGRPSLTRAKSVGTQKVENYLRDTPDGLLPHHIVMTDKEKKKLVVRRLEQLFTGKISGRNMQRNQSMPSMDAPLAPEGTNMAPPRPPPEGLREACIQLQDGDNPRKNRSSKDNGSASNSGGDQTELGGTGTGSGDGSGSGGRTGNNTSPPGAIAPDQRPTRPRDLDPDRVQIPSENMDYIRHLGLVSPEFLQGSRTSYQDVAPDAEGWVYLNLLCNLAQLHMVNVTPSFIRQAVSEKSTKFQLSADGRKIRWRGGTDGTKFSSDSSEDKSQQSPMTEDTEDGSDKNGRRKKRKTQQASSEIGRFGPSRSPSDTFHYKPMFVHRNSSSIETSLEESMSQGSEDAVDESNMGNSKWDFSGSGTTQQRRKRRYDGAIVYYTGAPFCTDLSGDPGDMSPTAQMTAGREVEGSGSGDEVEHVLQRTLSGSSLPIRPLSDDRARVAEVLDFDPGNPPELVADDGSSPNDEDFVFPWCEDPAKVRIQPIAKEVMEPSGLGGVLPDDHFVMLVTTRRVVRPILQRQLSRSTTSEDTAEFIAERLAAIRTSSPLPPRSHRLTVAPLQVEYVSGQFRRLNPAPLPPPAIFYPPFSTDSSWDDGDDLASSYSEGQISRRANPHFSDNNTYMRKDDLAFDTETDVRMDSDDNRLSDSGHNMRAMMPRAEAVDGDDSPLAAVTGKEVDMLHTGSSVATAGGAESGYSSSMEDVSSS

B1: White Collar-2 (WC-2) (protein, UniProt P78714 1-530)
chain: MSHGQPPPGSSMYGFGAMGMGSGMGSGMGSGMGTGMGTGMGTGMSASQMTSDPQDMMSLLDTSVFPGFDGMSMSLDVGDSMSNPFTPVSVPPPLPAGNAGPSHVGVCGGHGAPDQLFSPDDLIATSMSSAGPMIATPTTTTSGPSGGPSSGGGSTLTEFTKRRNWPAKVVEELQDWEHILDANGRIKHVSPSVEPLTGYKPPEIIDLFLRDLIHPDDVGVFTAELNEAIATGSQLRLFYRFRKKDGNWTIFETVGHAHIAAAKFAPNPQNQSPFCQAVFMMARPYPTKNAGLLDSFLEHKIENERLKRRIAELRREEQEEQEESHRTWRMSQEGRSDVTPSDDTATQMGMTPFYIPMNAQADVMMPPPSQPASSLNIALTRENLEGIAGSRPDSIREKMLRYEGNHADTIEMLTGLKYQEGERSHGITTGNASPTLIKGDAGIAIPLDRDPRTGEKKKKIKVAEEYVCTDCGTLDSPEWRKGPSGPKTLCNACGLRWAKKEKKKNANNNNNGGGIGGHNDIHTPMGDHMG
Q: Which results are given for B1?
A: binding [1]: no binding; binding [2]: binds
